PubChem BioAssay AID485294 (National Center for Advancing Translational Sciences (NCATS), 2010)
In all, about 370,000 compounds went through this assay and about 150 (0.041%) were called active. The shares of active, inactive and inconclusive entries below differ from those in the screen. Calls follow the shape of the dose curve; as a rule, active = well fitted inhibition curve with a large enough effect; inconclusive = small, poorly fitted or top-dose-only effect; inactive = flat fitted curve, though single readings scatter. Potencies of inconclusive entries are left out as doubtful fits.

target: Beta-lactamase (Escherichia coli (strain K12)) (UniProt P00811); assay: qHTS Inhibitors of AmpC Beta-Lactamase (assay with detergent); conditions: AmpC hydrolysis of nitrocefin, absorbance 480 nm, 0.01% Triton; activity change, negative = inhibition: at 114 µM (top of the series); also: nearly all actives have a fitted effect of over 25% in size;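 as to activity change, negative = inhibition: 0% = no-compound wells and -100% = no-enzyme wells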
Method in brief: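 20 mM phosphate pH 7.0 + 0.01% (detergent screen) or 0.0001% Triton X-100; 5.3 nM AmpC reagent; cpd preinc 15 min RT; nitrocefin (800 uM stock) to start; A480 q20 s × 4 min; Activity was normalised to no-enzyme and no-compound control wells.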
Potency is read from the fitted curve at half-maximal effect; tags tell the direction and shape of the fitted curve.

UniProt P00811, sequence (P00811 whole entry, looked up): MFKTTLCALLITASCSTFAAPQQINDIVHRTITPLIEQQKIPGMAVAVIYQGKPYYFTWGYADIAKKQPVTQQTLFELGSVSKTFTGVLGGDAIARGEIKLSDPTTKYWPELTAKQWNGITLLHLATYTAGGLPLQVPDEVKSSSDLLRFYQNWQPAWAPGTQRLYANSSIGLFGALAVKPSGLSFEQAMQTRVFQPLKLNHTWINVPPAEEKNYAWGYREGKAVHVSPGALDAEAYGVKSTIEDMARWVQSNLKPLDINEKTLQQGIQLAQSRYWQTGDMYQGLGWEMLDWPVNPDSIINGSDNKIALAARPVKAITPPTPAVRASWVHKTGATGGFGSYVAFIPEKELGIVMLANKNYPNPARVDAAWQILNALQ

Row | SMILES | Potency | activity change, negative = inhibition
1 | CCc1ccccc1N1C[C@@]23C=C[C@@H](O2)C(C(=O)OCC(C)C)[C@H]3C1=O (some centres not stated) | inconclusive [inhibitor, full curve, poor fit] | 
2 | COc1ccc(NC(=S)Nc2cccc([N+](=O)[O-])c2)cc1 |  | inactive: -10.2%
3 | CNC(=O)c1ccc2snnc2c1 | inconclusive [inhibitor, full curve] | 
4 | S=C(NCC1CCCO1)N1CCN(c2ccc(Cl)c(Cl)c2)CC1 (configuration not stated) | inconclusive [inhibitor, full curve, poor fit] | 
5 | O=C(COC(=O)c1cccc(F)c1)Nc1ccc2c(c1)OCCO2 | inconclusive [inhibitor, partial curve, poor fit] | 
6 | COc1cc(NS(C)(=O)=O)ccc1Nc1c2ccccc2nc2ccccc12 |  | inactive: -1.77%
7 | N#CCCN1CCN(S(=O)(=O)c2ccc(S(=O)(=O)N3CCOCC3)cc2)CC1 | inconclusive [inhibitor, full curve, poor fit] | 
8 | CC(C)(C)c1cc(NC(=O)Nc2ccccc2)no1 |  | inactive: -12.1%
9 | Cc1ccc(NC2=C(Cl)C(=O)OC2OC(=O)c2ccco2)cc1C (configuration not stated) |  | inactive: -11.9%
10 | CCNc1nc(NCC)n2c(SCC(=O)NC34CC5CC(CC(C5)C3)C4)nnc2n1 |  | inactive: -8.82%
11 | CCOc1ccc(NC(=O)CSc2nccn2C)cc1 | inconclusive [inhibitor, single point] | 
12 | Cc1cc(C)nc(SCc2nnc(SCC#N)n2-c2cccc(Cl)c2)n1 | inconclusive [inhibitor, full curve] | 
13 | COc1ccc(S(=O)(=O)NCCc2cn3cccc(C)c3n2)cc1OC | inconclusive [inhibitor, full curve] | 
14 | COc1ccccc1NC(=O)C1=C(C)NC(=O)NC1c1ccccc1F (configuration not stated) | inconclusive [inhibitor, full curve, poor fit] | 
15 | COC(=O)c1sccc1S(=O)(=O)N(CC(=O)NCc1ccc(C)cc1)c1ccc(Cl)cc1 | inconclusive [inhibitor, full curve, poor fit] | 
16 | COc1ccc(CC(=O)Nc2oc(-c3ccccc3)c(-c3ccccc3)c2C#N)cc1OC | inconclusive [inhibitor, full curve, poor fit] | 
17 | Nn1c(-c2ccccn2)nnc1-c1ccccn1 | inconclusive [inhibitor, full curve] | 
18 | NC(=O)c1cc(S(=O)(=O)N2CCc3ccccc3C2)cs1 |  | inactive: -5.48%
19 | C=CCc1c(C)nc(-c2ccccc2)nc1N/N=C/c1ccncc1 | inconclusive [inhibitor, partial curve, poor fit] | 
20 | Cc1nn(C(=O)c2cccc([N+](=O)[O-])c2)c(C)c1Sc1ccccc1 | inconclusive [inhibitor, single point] | 
21 | CCOc1ccc(C(=O)NC(=S)NCCCN2CCOCC2)cc1 | inconclusive [inhibitor, full curve] | 
22 | O=C(c1cccc(-n2cccc2)c1)N1CCN(S(=O)(=O)c2ccccc2)CC1 | inconclusive [inhibitor, single point] | 
23 | CCCN(C(=O)CSc1nc2c(cnn2-c2ccccc2)c(=O)[nH]1)C1CCS(=O)(=O)C1 (configuration not stated) |  | inactive: -9.61%

Row | SMILES | Potency | activity change, negative = inhibition
24 | Cc1nc(CC(=O)Nc2ccc(N(C)C)cc2)cs1 |  | inactive: 17.9%
25 | COc1cc(C)c(NC(=S)Nc2cccc(Cl)c2)cc1OC | inconclusive [inhibitor, partial curve, poor fit] | 
26 | O=c1oc2ccccc2c(Nc2cccc3cccnc23)c1[N+](=O)[O-] |  | inactive: 3.38%
27 | Cc1ccc(-n2[nH]c(C)c(C=Nc3ccc4[nH]c(=O)[nH]c4c3)c2=O)cc1C | inconclusive [inhibitor, partial curve, poor fit] | 
28 | Cc1ccc(C(C#N)N2CCOCC2)cc1 (configuration not stated) |  | inactive: 3.64%
29 | CCCCOC(=O)C(C)Nc1n[nH]c(=S)[nH]c1=O (configuration not stated) | inconclusive [inhibitor, partial curve, poor fit] | 
30 | N#CC(C#N)=C1C=CC=CN1/C(=C\c1ccco1)C(=O)c1ccc(-c2ccccc2)cc1 |  | inactive: -7.47%
31 | Cc1cccc(C(=O)N[C@H](C(=O)OCC(=O)NC(=O)c2cccn2C)C(C)C)c1 |  | inactive: -13.1%
32 | CC1(C)C(C(=O)N2CCN(C(=O)c3ccccc3)CC2)C1(C)C | inconclusive [inhibitor, full curve, poor fit] | 
33 | COc1ccc(C(=O)N(Cc2ccccc2)Cc2cc3cc4c(cc3[nH]c2=O)OCCO4)cc1 | inconclusive [inhibitor, full curve, poor fit] | 
34 | O=C(c1ccco1)N1CCN(C(c2ccc(F)cc2)c2nnnn2Cc2cccs2)CC1 (configuration not stated) | inconclusive [inhibitor, full curve, poor fit] | 
35 | O=C(NCCN1CCOCC1)c1ccncc1 | inconclusive [inhibitor, full curve, poor fit] | 
36 | COc1ccc(C2CC(c3ccc(C)cc3)Nc3ncnn32)cc1 (configuration not stated) | inconclusive [inhibitor, full curve] | 
37 | COCCCNC(=O)CS(=O)(=O)Cc1nc(-c2ccccc2C)oc1C | inconclusive [inhibitor, full curve, poor fit] | 
38 | CC(C)(C)OC(=O)N1CCC[C@H]1c1nnc(SC/C=C/c2ccccc2)o1 | inconclusive [inhibitor, partial curve, poor fit] | 
39 | CC(SCC(=O)Nc1ccc(S(=O)(=O)N2CCCCC2)cc1)C(=O)O (configuration not stated) |  | inactive: -13.8%
40 | COCCNC(=S)N/N=C(\C)c1ccccc1O |  | inactive: -1.5%
41 | O=C(NCc1ccc(F)cc1)c1cccc2c1C(=O)c1ccc(Cl)cc1S2(=O)=O |  | inactive: 4.2%
42 | Cc1nn(-c2ccccc2)c(Cl)c1C(=O)OC(C)C(=O)Nc1ccc2c(c1)OCO2 (configuration not stated) | inconclusive [inhibitor, full curve, poor fit] | 
43 | CCOC(=O)C(O)(c1ccc(N)c(OC)c1)C(F)(F)F (configuration not stated) | inconclusive [inhibitor, full curve] | 
44 | O=C(O)c1c[nH]ccc1=O | inconclusive [inhibitor, single point] | 
45 | Cc1ccc(C(=O)NCc2cccnc2)cc1S(=O)(=O)Nc1ccccc1 | inconclusive [inhibitor, full curve, poor fit] | 
46 | CCOC(=O)NC1(C(F)(F)F)NC(=O)N(c2ccc(C)c(C)c2)C1=O (configuration not stated) | inconclusive [inhibitor, single point] | 

Row | SMILES | Potency | activity change, negative = inhibition
47 | CC(NC(=O)c1cc2cc(Cl)ccc2oc1=N)c1ccccc1 (configuration not stated) | inconclusive [inhibitor, full curve] | 
48 | O=C(COC(=O)COc1ccccc1)NC1CCCC1 | inconclusive [inhibitor, full curve, poor fit] | 
49 | C[C@@H]1O[C@@H](O[C@H]2C[C@@H](O)[C@]3(CO)[C@H]4[C@H](O)C[C@]5(C)[C@@H](C6=CC(=O)OC6)CC[C@]5(O)[C@@H]4CC[C@]3(O)C2)[C@H](O)[C@H](O)[C@H]1O | inconclusive [inhibitor, full curve, poor fit] | 
50 | COc1ccc(-n2cnnc2SCC(=O)c2cc(C)n(Cc3cccs3)c2C)cc1 | inconclusive [inhibitor, full curve, poor fit] | 
51 | CNCc1c(OCc2ccccc2F)ccc2ccccc12 |  | inactive: 6.74%
52 | CCCc1ccc(OCC(O)CN2CCN(c3ccccn3)CC2)cc1 (configuration not stated) | inconclusive [inhibitor, single point] | 
53 | COc1ccc(NC(=O)CSc2ncnc3c2cnn3CCc2ccccc2)cc1 | inconclusive [inhibitor, partial curve] | 
54 | CC(C)(C)c1ccc(OCCC(=O)NNC(=O)c2ccncc2)cc1 | inconclusive [inhibitor, partial curve] | 
55 | Cc1c(C(=O)N2CCC[C@H]2CO)oc2c(F)cccc12 | inconclusive [inhibitor, partial curve] | 
56 | CCN(c1ccc(OC)cc1)S(=O)(=O)c1ccc2c(c1)CCN2C(=O)CCC(=O)O | inconclusive [inhibitor, full curve, poor fit] | 
57 | CCC(NC(=O)NCc1ccc2c(c1)OCO2)(C(F)(F)F)C(F)(F)F | inconclusive [inhibitor, full curve, poor fit] | 
58 | CC(C)[C@H](NC(=O)[C@@H]1Cc2ccccc2CN1)C(=O)Nc1ccc2c(c1)OCCO2 |  | inactive: -2.27%
59 | Cc1ccc(F)cc1NC(=O)c1c(-c2ccccc2)noc1C | inconclusive [inhibitor, full curve, poor fit] | 
60 | Cc1cc(Cn2nc(C(=O)NCC3CC3)cc2-c2ccccc2)on1 | inconclusive [inhibitor, full curve, poor fit] | 
61 | O=C(NCCc1cccc(Cl)c1)c1ccc(OC2CCN(Cc3ccccn3)CC2)cc1 |  | inactive: -13.2%
62 | CCC(C)(C)c1ccc(Oc2ccc(N)cc2)cc1 |  | inactive: -0.853%
63 | Cc1ccc(-c2csc(-c3ccncc3)n2)cc1 |  | inactive: 6.27%
64 | O=c1cc(O)c2sc3nc(-c4cccnc4)cc(C(F)(F)F)c3c2[nH]1 | inconclusive [inhibitor, single point] | 
65 | CC(C)Oc1ccc(Cc2c(O)[nH]c(=O)[nH]c2=O)cc1 | inconclusive [inhibitor, full curve] | 
66 | COc1ccccc1-c1noc(-c2ccco2)n1 | inconclusive [inhibitor, full curve] | 
67 | CC(C)(C)C(=O)OCC12CCC(O1)C1(C)C(=O)OCC21 (configuration not stated) | inconclusive [inhibitor, full curve, poor fit] | 
